Data as given in patent US20250214977A1, “STAT6 INHIBITORS AND USES THEREOF” (Kymera Therapeutics, Inc., priority 2024, published 2025).

What follows are compounds tested against T1, biotinylated truncated STAT6 (123-632)-avi (Homo sapiens, UniProt P42226) (assay: Homogenous Time-Resolved Fluorescence (HTRF) binding assay). Details: 0.15 nM biotinylated truncated STAT6 (123-632)-avi, 20 nM fluorescein-labeled probe, 30 minutes at room temperature.
T1 sequence (P42226 123-632 limits assumed): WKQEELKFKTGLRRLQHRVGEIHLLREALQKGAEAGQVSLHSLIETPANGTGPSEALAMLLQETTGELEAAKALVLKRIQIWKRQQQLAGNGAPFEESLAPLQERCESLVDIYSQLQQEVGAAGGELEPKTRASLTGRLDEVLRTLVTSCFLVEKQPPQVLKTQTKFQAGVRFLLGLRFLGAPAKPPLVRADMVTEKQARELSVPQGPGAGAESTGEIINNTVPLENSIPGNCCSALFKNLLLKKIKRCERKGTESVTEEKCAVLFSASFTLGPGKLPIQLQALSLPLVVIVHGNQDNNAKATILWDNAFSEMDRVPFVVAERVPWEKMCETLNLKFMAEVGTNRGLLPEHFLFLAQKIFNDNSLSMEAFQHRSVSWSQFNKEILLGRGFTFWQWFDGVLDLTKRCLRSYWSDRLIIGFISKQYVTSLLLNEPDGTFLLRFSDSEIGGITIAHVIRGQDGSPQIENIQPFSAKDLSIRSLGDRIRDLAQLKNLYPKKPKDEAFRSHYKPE

Question: Which IC50 does the source give for `COc1cc(F)cnc1N1CCN(C(=O)c2cc3c(-c4ccnc(N5CCN(C)CC5)c4)cc(C4=CCCN(C(=O)CCn5ccnn5)C4)c(F)c3[nH]2)CC1` [Example I-617] here?
Answer: < 100 nM

Question: `CN(C)C(=O)c1cc2ccc(C3=CCCN(C(=O)c4ccccc4-c4ccccc4C(=O)O)C3)cc2[nH]1` [Example I-105] was tested. Which IC50 did it give?
Answer: 10000 to 100000 nM

Question: How did the IC50 turn out when `COc1ccccc1-c1cc(C2=CCCN(C(=O)CCn3ccnn3)C2)c(F)c2[nH]c(C(=O)N3CCN(c4ccccc4OC)CC3)cc12` [Example I-349] was run?
Answer: < 100 nM

Question: How did the IC50 turn out when `CCOc1ccncc1-c1cc(C2=CCCN(C(=O)CCn3ccnn3)C2)c(F)c2[nH]c(C(=O)N3CCN(c4ccnnc4OC)CC3)cc12` [Example I-483] was run?
Answer: < 100 nM

Question: With `CN(C)C(=O)c1cc2ccc(C3=CCCN(C(=O)c4nonc4C4CC4)C3)cc2[nH]1` [Example I-44] as the compound, how does the IC50 read?
Answer: 10000 to 100000 nM

Question: For `COc1ccccc1-c1cc(C2=CCCN(C(=O)CCn3ccnn3)C2)c(F)c2[nH]c(C(=O)N3CCN(c4cc(F)c5nc(C)n(C(C)C)c5c4)CC3)cc12` [Example I-340], which IC50 is on record?
Answer: < 100 nM

Question: Which IC50 does the source give for `COc1cnccc1-c1cc(C2=CCCN(C(=O)CCn3ccnn3)C2)c(F)c2[nH]c(C(=O)N3CCN(C4CC4)CC3)cc12` [Example I-605] here?
Answer: < 100 nM

Question: With `COc1ccccc1-c1cc(C2=CCCN(C(=O)CCn3ccnn3)C2)c(F)c2[nH]c(C(=O)N3CCN(c4cn(C)c(=O)n(C)c4=O)CC3)cc12` [Example I-949] as the compound, how does the IC50 read?
Answer: < 100 nM

Question: `COc1ccccc1-c1cc(C2=CCCN(C(=O)CCn3ccnn3)C2)c(F)c2[nH]c(C(=O)N3CC=C(c4ncccc4OC)CC3)cc12` [Example I-425] was tested. Which IC50 did it give?
Answer: < 100 nM

Question: For `COc1cc(F)cnc1N1CCN(C(=O)c2cc3c(-c4cccc(-c5cccnc5)c4)cc(C4=CCCN(C(=O)CCn5ccnn5)C4)c(F)c3[nH]2)CC1` [Example I-629], which IC50 is on record?
Answer: < 100 nM

Question: How did the IC50 turn out when `CN(C)C(=O)c1cc2cc(C3=CCCN(C(=O)[C@@H](N)Cn4ccnn4)C3)ccc2o1` (single isomer, unassigned) [Example I-173] was run?
Answer: 10000 to 100000 nM

Question: How did the IC50 turn out when `Cc1cc(F)ccc1-c1cc(C2=CCCN(C(=O)CCn3ccnn3)C2)cc2cc(C(=O)N(C)C)oc12` [Example I-1083] was run?
Answer: < 100 nM

Question: With `COc1cccnc1N1CCN(C(=O)c2cc3ccc(C4=CCCN(C(C)=O)C4)c(F)c3[nH]2)CC1` [Example I-902] as the compound, how does the IC50 read?
Answer: 1000 to 10000 nM

Question: How did the IC50 turn out when `CN(C)C(=O)c1cc2cc(C3=CCCN(C(=O)CCc4ccncc4)C3)ccc2o1` [Example I-313] was run?
Answer: 1000 to 10000 nM

Question: With `CN(C)C(=O)c1cc2cc([C@H]3CC[C@H](CO)N(C(=O)CCn4ccnn4)C3)ccc2o1` (single isomer, unassigned) [Example I-157] as the compound, how does the IC50 read?
Answer: 1000 to 10000 nM

Question: `COc1cc(F)cnc1N1CCN(C(=O)c2cc3c(-c4c(F)ccc5ccc(C)nc45)cc(C4=CCCN(C(=O)CCn5ccnn5)C4)c(F)c3[nH]2)CC1` [Example I-631] was tested. Which IC50 did it give?
Answer: < 100 nM

Question: Which IC50 does the source give for `COc1ccncc1-c1cc(C2=CCCN(C(=O)CCn3ccnn3)C2)c(F)c2[nH]c(C(=O)N3CCN(c4ccccc4OC)CC3)cc12` [Example I-565] here?
Answer: < 100 nM

Question: `COc1ccccc1-c1cc(C2=CCCN(C(=O)CCn3ccnn3)C2)c(F)c2[nH]c(C(=O)N3CCN(c4ccc5ccccc5c4OC)CC3)cc12` [Example I-956] was tested. Which IC50 did it give?
Answer: 1000 to 10000 nM

Question: `CN(C)C(=O)c1cc2cc(C3=CCCN(C(=O)CCc4cn5cccnc5n4)C3)ccc2o1` [Example I-281] was tested. Which IC50 did it give?
Answer: 10000 to 100000 nM

Question: Which IC50 does the source give for `CN(C)C(=O)c1cc2ccc(C3=CCCN(C(=O)CCc4cccc(C#N)c4)C3)cc2[nH]1` [Example I-63] here?
Answer: 10000 to 100000 nM

Question: For `COc1ccc(C)cc1-c1cc(C2=CCCN(C(=O)CCn3ccnn3)C2)cc2[nH]c(C(=O)N(C)C)cc12` [Example I-1057], which IC50 is on record?
Answer: < 100 nM

Question: `CN(C)C(=O)c1cc2ccc(C3=CCCN(C(=O)[C@@H](N)Cc4cccc(F)c4)C3)cc2[nH]1` [Example I-65] was tested. Which IC50 did it give?
Answer: 10000 to 100000 nM

Question: Which IC50 does the source give for `COc1cc(C#N)ccc1-c1cc(C2=CCCN(C(=O)CCn3ccnn3)C2)c(F)c2[nH]c(C(=O)N3CCN(c4ncccc4OC)CC3)cc12` [Example I-576] here?
Answer: < 100 nM

Question: With `CN(C)C(=O)c1cc2ccc(C3=CCCN(C(=O)C4(C#N)CC4)C3)cc2[nH]1` [Example I-29] as the compound, how does the IC50 read?
Answer: 1000 to 10000 nM

Question: How did the IC50 turn out when `CN(C)C(=O)c1cc2ccc(C3=CCCN(C(=O)CCc4ccon4)C3)cc2[nH]1` [Example I-831] was run?
Answer: 100 to 1000 nM

Question: How did the IC50 turn out when `C[C@H](Cn1ccnn1)C(=O)N1CCC=C(c2ccc3oc(C(=O)N(C)C)cc3c2)C1` (single isomer, unassigned) [Example I-228] was run?
Answer: 100 to 1000 nM

Question: `Cc1c(S(C)(=O)=O)ccc(C(=O)N2CCC=C(c3ccc4cc(C(=O)N(C)C)[nH]c4c3)C2)c1Cl` [Example I-138] was tested. Which IC50 did it give?
Answer: 1000 to 10000 nM

Question: `COc1ccccc1-c1cc(C2=CCCN(C(=O)CCn3ccnn3)C2)c(F)c2[nH]c(C(=O)N3CCN(c4cc5ccccc5cc4OC)CC3)cc12` [Example I-342] was tested. Which IC50 did it give?
Answer: < 100 nM

Question: For `CC(=O)N1CCc2ccccc2[C@@H]1C(=O)N1CCC=C(c2ccc3oc(C(=O)N(C)C)cc3c2)C1` (single isomer, unassigned) [Example I-177], which IC50 is on record?
Answer: 10000 to 100000 nM

Question: For `CN(C)C(=O)c1cc2cc(C3=CCCN(C(=O)CCn4ccnn4)C3)cc(-c3ccc(O)cc3)c2o1` [Example I-205], which IC50 is on record?
Answer: < 100 nM

Question: How did the IC50 turn out when `CN(C)C(=O)c1cc2ccc(C3=CCCN(C(=O)c4ccc(-c5ccc(Cl)cc5)cc4)C3)cc2[nH]1` [Example I-83] was run?
Answer: 1000 to 10000 nM

Question: Which IC50 does the source give for `COc1ccccc1-c1cc(C2=CCCN(C(=O)CCn3ccnn3)C2)c(F)c2[nH]c(C(=O)N3CCN(Cc4c(C)nn(C)c4C)CC3)cc12` [Example I-1182] here?
Answer: < 100 nM

Question: Which IC50 does the source give for `COc1cnc(N2CCN(C(=O)c3cc4c(-c5ccccc5OC)cc(C5=CCCN(C(=O)CCn6ccnn6)C5)c(F)c4[nH]3)CC2)c(OC)c1` [Example I-352] here?
Answer: < 100 nM

Question: For `COc1ccccc1-c1cc(C2=CCCN(C(=O)CCn3ccnn3)C2)c(F)c2[nH]c(C(=O)N3CCO[C@H](C)C3)cc12` [Example I-1007], which IC50 is on record?
Answer: < 100 nM

Same assay, conditions: 0.15 nM biotinylated truncated STAT6 (123-632)-avi, 20 nM fluorescein-labeled probe, 30 minutes room temperature

Question: For `COc1ccccc1-c1cc(C2=CCCN(C(=O)CCn3ccnn3)C2)c(F)c2[nH]c(C(=O)N3CCC(C)(O)CC3)cc12` [Example I-1415], which IC50 is on record?
Answer: < 100 nM

Question: With `Cc1ccccc1-c1cc(C2=CCCN(C(=O)CCn3ccnn3)C2)cc2[nH]c(C(=O)N(C)C)cc12` [Example I-1680] as the compound, how does the IC50 read?
Answer: < 100 nM

Question: `CN(C)C(=O)c1cc2ccc(C3=CCCN(C(=O)CCc4nc(C(N)=O)cs4)C3)c(F)c2[nH]1` [Example I-1250] was tested. Which IC50 did it give?
Answer: < 100 nM

Question: Which IC50 does the source give for `COc1ccccc1-c1cc(C2=CCCN(C(=O)CCn3ccnn3)C2)c(F)c2[nH]c(C(=O)N3CCN(c4cc(C)nc(C)c4)CC3)cc12` [Example I-1381] here?
Answer: < 100 nM

Question: `COc1ccccc1N1CCN(c2cc(C3=CCCN(C(=O)CCn4ccnn4)C3)cc3cc(C(=O)N(C)C)oc23)CC1` [Example I-1514] was tested. Which IC50 did it give?
Answer: 100 to 1000 nM

Question: `Cc1ccc(C2CCCN2C(=O)c2cc3cc(C4=CCCN(C(=O)CCn5ccnn5)C4)ccc3o2)cc1` (centres unmarked) [Example I-1611] was tested. Which IC50 did it give?
Answer: 1000 to 10000 nM

Question: `COc1ccccc1-c1cc(C(=O)N(C)C)cc2sc(C3=CCCN(C(=O)CCc4nccs4)C3)nc12` [Example I-1477] was tested. Which IC50 did it give?
Answer: < 100 nM

Question: For `COc1cc2c(N3CCN(C(=O)c4cc5c(-c6ccccc6OC)cc(C6=CCCN(C(=O)CCn7ccnn7)C6)c(F)c5[nH]4)CC3)ccnc2cc1O` [Example I-1449], which IC50 is on record?
Answer: < 100 nM

Question: `O=C(CCn1ccnn1)N1CCC=C(c2ccc3oc(-c4cnn(C5CC5)c4)cc3c2)C1` [Example I-1278] was tested. Which IC50 did it give?
Answer: 10000 to 100000 nM

Question: For `CNC1CCN(C(=O)c2cc3c(-c4ccccc4OC)cc(C4=CCCN(C(=O)CCn5ccnn5)C4)c(F)c3[nH]2)C1` (centres unmarked) [Example I-1359], which IC50 is on record?
Answer: 100 to 1000 nM

Question: For `COc1ccccc1-c1cc(C2=CCCN(C(=O)CCn3ccnn3)C2)c(F)c2[nH]c(C(=O)N3CCN(c4cnn(C)n4)CC3)cc12` [Example I-1362], which IC50 is on record?
Answer: < 100 nM

Question: Which IC50 does the source give for `CN(C)C(=O)c1cc2c(Oc3ccccc3)cc(C3=CCCN(C(=O)CCn4ccnn4)C3)c(F)c2[nH]1` [Example I-1627] here?
Answer: < 100 nM

Question: With `CCc1nc(C)ccc1-c1cc(C(=O)N2CCN(c3ncc(F)cc3OC)CC2)cc2cc(C3=CCCN(C(C)=O)C3)n(CC3CCN(C)C3)c12` (centres unmarked) [Example I-1221] as the compound, how does the IC50 read?
Answer: < 100 nM

Question: Which IC50 does the source give for `COc1ccccc1-c1cc(C2=CCCN(C(=O)CCn3ccnn3)C2)c(F)c2[nH]c(C(=O)N3CCCOCC3)cc12` [Example I-1623] here?
Answer: < 100 nM

Question: `CN(C)C(=O)c1cc2c(-c3ccncc3)cc(C3=CCCN(C(=O)CCn4ccnn4)C3)cc2[nH]1` [Example I-1676] was tested. Which IC50 did it give?
Answer: < 100 nM

Question: For `CN(C)C(=O)c1cc2ccc(C3CCCC(C(=O)Nc4cccc(C(N)=O)c4)C3)c(F)c2[nH]1` (centres unmarked) [Example I-1248], which IC50 is on record?
Answer: 1000 to 10000 nM
